# In all, about 81,000 sequences were measured (“one-hybrid fitness for binding parS DNA”: median about -0.17, highest 2% from about 0.51 on). The list shows a part of the results.
# B1: Caulobacter ParB omega fusion; a variant is named by its letters at X, in order, B8GW30 (parent)
# chain: MESVVVGEPGMSEGRRGLGRGLSALLGEVDAAPAQAPGEQLGGSREAPIEILQRNPDQPRRTFREEDLEDLSNSIREKGVLQPILVRPSPDTAGEYQIVAGERAWRAAQRAGLKTVPIMVRELDDLAVLEIGIIENVQRADLNVLEEALSYKVLMEKFERTQENIAQTIGKSXSHVANXMRLLXLPDEVQSYLVSGELTAXHARAIAAAADPVALAKQIIEGGLSVRETEALARKAPNLSAGKSKGGRPPRVKDTDTQALESDLSSVLGLDVSIDHRGSTGTLTITYATLEQLDDLCNRLTRGI
# Variants of: B1
# Experiment: one-hybrid fitness for binding parS DNA (scaled: cognate 1, non-cognate 0); higher = stronger binding
# Conditions: with parS DNA site
# Method in brief: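 Fitness is the rescaled log change in variant-to-wild-type read ratio, measured by Illumina sequencing of plasmids before and after bacterial one-hybrid selection. The scale puts cognate at 1 and non-cognate at 0. Selection of Caulobacter ParB libraries, four specificity codons randomised, took place in E. coli USO with a HIS3 reporter, site 19 bp from the promoter, over 48 hours at 37°C on M9-minus-histidine with 0.1 mM IPTG and 5 mM 3-AT.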
row,Variant,one-hybrid fitness for binding parS DNA
1,LEAP,≤ 0.2
2,YDSI,≤ 0.2
3,ADPD,≤ 0.2
4,TTNQ,≤ 0.2
5,TAQG,≤ 0.2
6,HIDR,≤ 0.2
7,AAST,≤ 0.2
8,PFAK,≤ 0.2
9,KWKT,≤ 0.2
10,CRTM,≤ 0.2
11,WPLL,≤ 0.2
12,EKFF,≤ 0.2
13,SEHY,≤ 0.2
14,MRPC,≤ 0.2
15,IMHR,≤ 0.2
16,GDLG,≤ 0.2
17,IIAL,≤ 0.2
18,YWVC,≤ 0.2
19,GKNA,≤ 0.2
20,FGHR,≤ 0.2
21,RLPN,0.225
22,KRVH,≤ 0.2
23,REGF,≤ 0.2
24,SHQL,≤ 0.2

row,Variant,one-hybrid fitness for binding parS DNA
1,QCYV,≤ 0.2
2,WISS,≤ 0.2
3,YRPV,≤ 0.2
4,YGYG,≤ 0.2
5,NEVW,≤ 0.2
6,NHVT,≤ 0.2
7,LHKA,≤ 0.2
8,WHTC,≤ 0.2
9,QKRT,≤ 0.2
10,YVAS,≤ 0.2
11,RKLS,0.876
12,QGCS,≤ 0.2
13,LYVY,≤ 0.2
14,MLKV,≤ 0.2
15,WCLG,≤ 0.2
16,KVMW,≤ 0.2
17,AQFK,≤ 0.2
18,QLNQ,≤ 0.2
19,QCSD,≤ 0.2
20,QWER,≤ 0.2
21,HYDL,≤ 0.2
22,NDNV,≤ 0.2
23,ANCF,≤ 0.2
24,ENWG,≤ 0.2

row,Variant,one-hybrid fitness for binding parS DNA
1,STFF,≤ 0.2
2,NDHS,≤ 0.2
3,HRFE,≤ 0.2
4,RHSI,≤ 0.2
5,PMVT,≤ 0.2
6,FCDG,≤ 0.2
7,KLVS,≤ 0.2
8,PDKY,≤ 0.2
9,HRNF,≤ 0.2
10,TNAV,≤ 0.2
11,PCMS,≤ 0.2
12,DYYN,≤ 0.2
13,SKIK,≤ 0.2
14,HDPP,≤ 0.2
15,GLKA,≤ 0.2
16,VQTR,≤ 0.2
17,SAAW,≤ 0.2
18,RFSW,0.247
19,RNRD,≤ 0.2
20,CITN,≤ 0.2
21,PYGV,≤ 0.2
22,DVNT,≤ 0.2
23,TRNM,≤ 0.2
24,NRES,≤ 0.2

row,Variant,one-hybrid fitness for binding parS DNA
1,FGQC,≤ 0.2
2,YRRG,0.271
3,QKAQ,≤ 0.2
4,CIVI,≤ 0.2
5,DRKM,≤ 0.2
6,TLEG,≤ 0.2
7,RADR,≤ 0.2
8,GKHA,≤ 0.2
9,SNSF,≤ 0.2
10,QHTG,≤ 0.2
11,MPAG,≤ 0.2
12,DFHP,≤ 0.2
13,CVVR,≤ 0.2
14,DPTG,≤ 0.2
15,AMGY,≤ 0.2
16,FTAR,≤ 0.2
17,KPAR,≤ 0.2
18,ESAL,≤ 0.2
19,LHAH,≤ 0.2
20,HVPN,≤ 0.2
21,MERR,≤ 0.2
22,LYPP,≤ 0.2
23,CFPV,≤ 0.2
24,QAAN,≤ 0.2

row,Variant,one-hybrid fitness for binding parS DNA
1,ASQL,≤ 0.2
2,ITFS,≤ 0.2
3,YNSN,≤ 0.2
4,RAWY,0.512
5,NYVG,≤ 0.2
6,YWRS,≤ 0.2
7,FLSI,≤ 0.2
8,RTVC,0.929
9,INEC,≤ 0.2
10,RTAG,1
11,TGPS,≤ 0.2
12,THLC,≤ 0.2
13,RWAD,≤ 0.2
14,RAAW,0.233
15,DRIG,≤ 0.2
16,FTES,≤ 0.2
17,LGKM,≤ 0.2
18,WGLI,≤ 0.2
19,PDPM,≤ 0.2
20,YGEM,≤ 0.2
21,AVGC,≤ 0.2
22,RSGC,0.956
23,KPRC,≤ 0.2
24,TRMI,≤ 0.2

row,Variant,one-hybrid fitness for binding parS DNA
1,EWVM,≤ 0.2
2,TQHV,≤ 0.2
3,SYHY,≤ 0.2
4,DWPE,≤ 0.2
5,GSML,≤ 0.2
6,FHYF,≤ 0.2
7,NDMP,≤ 0.2
8,SAMT,≤ 0.2
9,YSPT,≤ 0.2
10,PNDF,≤ 0.2
11,QYYI,≤ 0.2
12,TLHV,≤ 0.2
13,ATTG,≤ 0.2
14,IAQV,≤ 0.2
15,IAVL,≤ 0.2
16,VVAW,≤ 0.2
17,TIPS,≤ 0.2
18,TDYE,≤ 0.2
19,KKLA,≤ 0.2
20,VRRF,≤ 0.2
21,PGAC,≤ 0.2
22,SANV,≤ 0.2
23,LVHS,≤ 0.2
24,HLQI,≤ 0.2

row,Variant,one-hybrid fitness for binding parS DNA
1,YHAG,≤ 0.2
2,KRQL,≤ 0.2
3,AIHP,≤ 0.2
4,YWHS,≤ 0.2
5,LYHI,≤ 0.2
6,TMIH,≤ 0.2
7,DIDG,≤ 0.2
8,DAPP,≤ 0.2
9,FCSA,≤ 0.2
10,WRWW,≤ 0.2
11,WSHR,≤ 0.2
12,CRRQ,≤ 0.2
13,TQTL,≤ 0.2
14,LNLT,≤ 0.2
15,NALM,≤ 0.2
16,ILPV,≤ 0.2
17,NMNW,≤ 0.2
18,TFRL,≤ 0.2
19,NTPS,≤ 0.2
20,FLGG,≤ 0.2
21,HTWC,≤ 0.2
22,LRMK,≤ 0.2
23,LHGW,≤ 0.2
24,IQPT,≤ 0.2

row,Variant,one-hybrid fitness for binding parS DNA
1,TQYF,≤ 0.2
2,PHAM,≤ 0.2
3,HQEF,≤ 0.2
4,SLYN,≤ 0.2
5,GRHW,≤ 0.2
6,VPMR,≤ 0.2
7,SVLL,≤ 0.2
8,HRQG,0.25
9,VTTK,≤ 0.2
10,ANYM,≤ 0.2
11,LKEN,≤ 0.2
12,GCWS,≤ 0.2
13,HPYD,≤ 0.2
14,GLKM,≤ 0.2
15,GHVW,≤ 0.2
16,IFRN,≤ 0.2
17,NHRK,≤ 0.2
18,YHYG,≤ 0.2
19,QKMW,≤ 0.2
20,QSSS,≤ 0.2
21,GTVW,≤ 0.2
22,HIHG,≤ 0.2
23,KKRT,≤ 0.2
24,APTV,≤ 0.2

row,Variant,one-hybrid fitness for binding parS DNA
1,ACSE,≤ 0.2
2,PHSA,≤ 0.2
3,EANL,≤ 0.2
4,MLYE,≤ 0.2
5,LCFG,≤ 0.2
6,MYAV,≤ 0.2
7,PGSL,≤ 0.2
8,SMHE,≤ 0.2
9,RMCC,0.985
10,GSTS,≤ 0.2
11,PKMT,≤ 0.2
12,VCRS,≤ 0.2
13,EVFG,≤ 0.2
14,KYHF,≤ 0.2
15,CHQC,≤ 0.2
16,CMNL,≤ 0.2
17,TVCC,≤ 0.2
18,FMGG,≤ 0.2
19,LKYT,≤ 0.2
20,ATWF,≤ 0.2
21,KAKI,≤ 0.2
22,PKFP,≤ 0.2
23,TTNV,≤ 0.2
24,HVVS,≤ 0.2

row,Variant,one-hybrid fitness for binding parS DNA
1,RYGV,≤ 0.2
2,IAGL,≤ 0.2
3,RNMC,0.745
4,MITW,≤ 0.2
5,RFLL,≤ 0.2
6,CSRV,≤ 0.2
7,TQYS,≤ 0.2
8,RPMT,≤ 0.2
9,LNAP,≤ 0.2
10,RSWE,≤ 0.2
11,PPWD,≤ 0.2
12,PRAN,≤ 0.2
13,NRLF,≤ 0.2
14,RMSN,0.449
15,STLA,≤ 0.2
16,LDRL,≤ 0.2
17,QLKN,≤ 0.2
18,RLHY,0.473
19,WCSG,≤ 0.2
20,TAHT,≤ 0.2
21,KNKF,0.221
22,GMNC,≤ 0.2
23,LGPI,≤ 0.2
24,KPSQ,≤ 0.2

row,Variant,one-hybrid fitness for binding parS DNA
1,VCKL,≤ 0.2
2,TQVG,≤ 0.2
3,NDWR,≤ 0.2
4,FRRA,≤ 0.2
5,CPRD,≤ 0.2
6,RCRN,0.387
7,HFAA,≤ 0.2
8,TQSH,≤ 0.2
9,AAPG,≤ 0.2
10,TWTW,≤ 0.2
11,IDSA,≤ 0.2
12,TACG,≤ 0.2
13,PRFW,≤ 0.2
14,YKYR,≤ 0.2
15,LRQR,≤ 0.2
16,IESR,≤ 0.2
17,QHLC,≤ 0.2
18,PNFI,≤ 0.2
19,PDYT,≤ 0.2
20,IRHN,≤ 0.2
21,YAAC,≤ 0.2
22,EMNR,≤ 0.2
23,SKSC,≤ 0.2
24,EEGT,≤ 0.2

row,Variant,one-hybrid fitness for binding parS DNA
1,NERS,≤ 0.2
2,RFMW,0.208
3,GIYG,≤ 0.2
4,CADC,≤ 0.2
5,LCPN,≤ 0.2
6,SSDC,≤ 0.2
7,RKVR,≤ 0.2
8,RCYL,≤ 0.2
9,TRLI,≤ 0.2
10,WIRL,≤ 0.2
11,WYKL,≤ 0.2
12,LLEL,≤ 0.2
13,HGWW,≤ 0.2
14,DQDC,≤ 0.2
15,NAIT,≤ 0.2
16,SYHI,≤ 0.2
17,ASRH,≤ 0.2
18,IQME,≤ 0.2
19,SPAP,≤ 0.2
20,WVMC,≤ 0.2
21,VEYS,≤ 0.2
22,NVIG,≤ 0.2
23,RWRQ,≤ 0.2
24,VRCC,≤ 0.2

row,Variant,one-hybrid fitness for binding parS DNA
1,NRHC,≤ 0.2
2,GQKN,≤ 0.2
3,QSKT,≤ 0.2
4,DMSV,≤ 0.2
5,KLSG,≤ 0.2
6,DKTV,≤ 0.2
7,DREC,≤ 0.2
8,CVDG,≤ 0.2
9,GTAL,≤ 0.2
10,NSRV,≤ 0.2
11,IEPE,≤ 0.2
12,HTEM,≤ 0.2
13,NSNR,≤ 0.2
14,QPRQ,≤ 0.2
15,HETW,≤ 0.2
16,LAGL,≤ 0.2
17,AWSC,≤ 0.2
18,CIES,≤ 0.2
